Assay results published in the supplement of paper PMC10369915.
The list shows a part of the results. Cut-off read from the data, not from the text of the source: active = 3.2 or more and inactive = the rest. The signal is at background level for most entries.

These binders were tested against SHP2 C-SH2 domain E139D (assay: enrichment score (SH2-bound / input frequency) (ratio); bacterial display of known human phosphotyrosine sites (pTyr-Var adds point mutants) read by sequencing; higher = stronger binding; tyrosines were phosphorylated by kinases first). Details: peptide library: Human pTyr.
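Note: displayed peptides selected on beads carrying the immobilized SH2 domain, with library peptides lacking any tyrosine serving as negative controls.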

Enrichment score, inactive:
GQLTFLNAGFMTHNA [NegativeControl01_Ala] 1.4
SVHDAFEFCPEFWDK [NegativeControl04_Phe] 1.13
KMAPFATFSFWAQCI [NegativeControl08_Phe] 1.81
SDDFDSDYENPDEHS [BLNK_HUMAN_72] 1.28
EENADDSYEPPPVEQ [BLNK_HUMAN_96] 0.983
ISFLQGNYELLPGNQ [BORG2_HUMAN_63] 0.763
ALEETKAYTTQSLAS [ABI1_HUMAN_53] 0.503
TVHKLSAYEADFERG [BTK_HUMAN_40_YA] 1.13
DTRDNVYYYDEEGGG [CADH1_HUMAN_754] 0.758
YDKDRSGYIDEHELD [CALB2_HUMAN_214] 0.966
DGQEAPIYELTSQFT [CASP8_HUMAN_334] 0.88
TASDGKLYVSSESRF [ABL1_HUMAN_185] 0.644
TILTEVNYEVSNKDD [CASP8_HUMAN_448] 0.773
DDYDAGRYSPRLLTA [CATIN_HUMAN_559] 0.537
GLITTLHYPAPKRNK [ABL1_HUMAN_215] 0.926
IREQGNIYKPNNKAM [CAV1_HUMAN_25] 0.922
EGEEDTEYMTPSSRP [CBL_HUMAN_700] 0.991
SENEDDGYDVPKPPV [CBL_HUMAN_774] 1.09

Each binder was assayed against SHP2 C-SH2 domain wild-type in the same assay as above. Details: peptide library: Human pTyr.

Enrichment score, inactive:
GQLTFLNAGFMTHNA [NegativeControl01_Ala] 0.959
SVHDAFEFCPEFWDK [NegativeControl04_Phe] 1.06
KMAPFATFSFWAQCI [NegativeControl08_Phe] 1.46
SDDFDSDYENPDEHS [BLNK_HUMAN_72] 1.28
EENADDSYEPPPVEQ [BLNK_HUMAN_96] 0.81
ISFLQGNYELLPGNQ [BORG2_HUMAN_63] 0.708
ALEETKAYTTQSLAS [ABI1_HUMAN_53] 0.569
TVHKLSAYEADFERG [BTK_HUMAN_40_YA] 0.891
DTRDNVYYYDEEGGG [CADH1_HUMAN_754] 0.971
YDKDRSGYIDEHELD [CALB2_HUMAN_214] 0.757
DGQEAPIYELTSQFT [CASP8_HUMAN_334] 0.606
TASDGKLYVSSESRF [ABL1_HUMAN_185] 0.527
TILTEVNYEVSNKDD [CASP8_HUMAN_448] 0.69
DDYDAGRYSPRLLTA [CATIN_HUMAN_559] 0.418
GLITTLHYPAPKRNK [ABL1_HUMAN_215] 0.961
IREQGNIYKPNNKAM [CAV1_HUMAN_25] 1.01
EGEEDTEYMTPSSRP [CBL_HUMAN_700] 1.01
SENEDDGYDVPKPPV [CBL_HUMAN_774] 0.782

Each binder was assayed against SHP2 N-SH2 domain L43F in the same assay as above. Details: peptide library: Human pTyr.

Enrichment score, inactive:
GQLTFLNAGFMTHNA [NegativeControl01_Ala] 1.31
SVHDAFEFCPEFWDK [NegativeControl04_Phe] 1.33
KMAPFATFSFWAQCI [NegativeControl08_Phe] 1.55
SDDFDSDYENPDEHS [BLNK_HUMAN_72] 1.42
EENADDSYEPPPVEQ [BLNK_HUMAN_96] 0.76
ISFLQGNYELLPGNQ [BORG2_HUMAN_63] 0.78
ALEETKAYTTQSLAS [ABI1_HUMAN_53] 0.552
TVHKLSAYEADFERG [BTK_HUMAN_40_YA] 0.646
DTRDNVYYYDEEGGG [CADH1_HUMAN_754] 1.19
YDKDRSGYIDEHELD [CALB2_HUMAN_214] 0.91
DGQEAPIYELTSQFT [CASP8_HUMAN_334] 0.724
TASDGKLYVSSESRF [ABL1_HUMAN_185] 0.697
TILTEVNYEVSNKDD [CASP8_HUMAN_448] 0.631
DDYDAGRYSPRLLTA [CATIN_HUMAN_559] 0.519
GLITTLHYPAPKRNK [ABL1_HUMAN_215] 0.893
IREQGNIYKPNNKAM [CAV1_HUMAN_25] 0.918
EGEEDTEYMTPSSRP [CBL_HUMAN_700] 0.901
SENEDDGYDVPKPPV [CBL_HUMAN_774] 0.781

These binders were tested against SHP2 N-SH2 domain T42A in the same assay as above. Details: peptide library: Human pTyr.

Enrichment score, inactive:
GQLTFLNAGFMTHNA [NegativeControl01_Ala] 0.952
SVHDAFEFCPEFWDK [NegativeControl04_Phe] 0.908
KMAPFATFSFWAQCI [NegativeControl08_Phe] 1.52
SDDFDSDYENPDEHS [BLNK_HUMAN_72] 1.56
EENADDSYEPPPVEQ [BLNK_HUMAN_96] 0.773
ISFLQGNYELLPGNQ [BORG2_HUMAN_63] 0.697
ALEETKAYTTQSLAS [ABI1_HUMAN_53] 0.564
TVHKLSAYEADFERG [BTK_HUMAN_40_YA] 0.796
DTRDNVYYYDEEGGG [CADH1_HUMAN_754] 0.915
YDKDRSGYIDEHELD [CALB2_HUMAN_214] 0.906
DGQEAPIYELTSQFT [CASP8_HUMAN_334] 0.809
TASDGKLYVSSESRF [ABL1_HUMAN_185] 0.733
TILTEVNYEVSNKDD [CASP8_HUMAN_448] 0.789
DDYDAGRYSPRLLTA [CATIN_HUMAN_559] 0.412
GLITTLHYPAPKRNK [ABL1_HUMAN_215] 0.867
IREQGNIYKPNNKAM [CAV1_HUMAN_25] 0.915
EGEEDTEYMTPSSRP [CBL_HUMAN_700] 0.859
SENEDDGYDVPKPPV [CBL_HUMAN_774] 0.705

These binders were tested against SHP2 N-SH2 domain T52S in the same assay as above. Details: peptide library: Human pTyr.

Enrichment score, inactive:
GQLTFLNAGFMTHNA [NegativeControl01_Ala] 1.25
SVHDAFEFCPEFWDK [NegativeControl04_Phe] 1.06
KMAPFATFSFWAQCI [NegativeControl08_Phe] 2.24
SDDFDSDYENPDEHS [BLNK_HUMAN_72] 1.17
EENADDSYEPPPVEQ [BLNK_HUMAN_96] 0.92
ISFLQGNYELLPGNQ [BORG2_HUMAN_63] 0.681
ALEETKAYTTQSLAS [ABI1_HUMAN_53] 0.549
TVHKLSAYEADFERG [BTK_HUMAN_40_YA] 0.682
DTRDNVYYYDEEGGG [CADH1_HUMAN_754] 0.83
YDKDRSGYIDEHELD [CALB2_HUMAN_214] 0.985
DGQEAPIYELTSQFT [CASP8_HUMAN_334] 0.834
TASDGKLYVSSESRF [ABL1_HUMAN_185] 0.662
TILTEVNYEVSNKDD [CASP8_HUMAN_448] 0.769
DDYDAGRYSPRLLTA [CATIN_HUMAN_559] 0.421
GLITTLHYPAPKRNK [ABL1_HUMAN_215] 0.932
IREQGNIYKPNNKAM [CAV1_HUMAN_25] 1.08
EGEEDTEYMTPSSRP [CBL_HUMAN_700] 0.822
SENEDDGYDVPKPPV [CBL_HUMAN_774] 0.9

The binders below were run against SHP2 N-SH2 domain wild-type in the same assay as above. Details: peptide library: Human pTyr.

Enrichment score, inactive:
GQLTFLNAGFMTHNA [NegativeControl01_Ala] 0.94
SVHDAFEFCPEFWDK [NegativeControl04_Phe] 1.36
KMAPFATFSFWAQCI [NegativeControl08_Phe] 2.32
SDDFDSDYENPDEHS [BLNK_HUMAN_72] 1.4
EENADDSYEPPPVEQ [BLNK_HUMAN_96] 0.666
ISFLQGNYELLPGNQ [BORG2_HUMAN_63] 0.684
ALEETKAYTTQSLAS [ABI1_HUMAN_53] 0.642
TVHKLSAYEADFERG [BTK_HUMAN_40_YA] 0.691
DTRDNVYYYDEEGGG [CADH1_HUMAN_754] 0.842
YDKDRSGYIDEHELD [CALB2_HUMAN_214] 0.977
DGQEAPIYELTSQFT [CASP8_HUMAN_334] 0.742
TASDGKLYVSSESRF [ABL1_HUMAN_185] 0.56
TILTEVNYEVSNKDD [CASP8_HUMAN_448] 1.18
DDYDAGRYSPRLLTA [CATIN_HUMAN_559] 0.485
GLITTLHYPAPKRNK [ABL1_HUMAN_215] 0.756
IREQGNIYKPNNKAM [CAV1_HUMAN_25] 1.21
EGEEDTEYMTPSSRP [CBL_HUMAN_700] 1.01
SENEDDGYDVPKPPV [CBL_HUMAN_774] 0.879
